Results taken from the supplement of paper PMC5499739.
In all, about 16,000 sequences were measured (“Z-score”: median about -0.37, highest 2% from about 3.2 on). Some of the results follow.

System: RBM10 RRM1-ZnF (GST-tagged construct)
Assay: RNAcompete 7-mer binding Z-score; higher = stronger binding preference
How it was run: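 Each heptamer motif was given a one-sided Z-score for enrichment across the probes that contained it. GST-tagged RBM10 constructs (20 pmol) were combined with 1.5 nmol of a designed pool of 241 399 RNAs of up to 41 nt, transcribed from microarray-derived DNA templates. Binding took place in 1 ml Hepes pH 7.8 buffer containing KCl, NaCl, glycerol, DTT, BSA and glutathione Sepharose beads for 30 min at 4°C. After four 2-min washes at 4°C, bound RNA was identified by microarray hybridisation.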

Sequence | RNAcompete 7-mer binding Z-score
UAACACC | -0.694
CGACGCC | -0.578
UUAUACA | -0.542
UGGGAUC | 1.57
AUCGACC | -0.746
CCUAACC | -0.746
GCAGGUC | 0.339
UGGCCGU | -0.337
UUAAAGG | 0.813
GCGAUCU | -0.604
AGCCAGG | 0.514
UGAUAAU | -0.314
UGAUGAU | 0.16
CCCGUCU | -0.737
UUACCCG | -0.665
CGUCGGA | 0.0235
UUCUGGU | -0.262
GUUCAAU | -0.412
CAACCAU | -0.704
GAUGAUU | 0.0138
GAUAGUC | -0.279
CGCGUGA | -0.155
AUUCAAU | -0.552

Sequence | RNAcompete 7-mer binding Z-score
UACCGAG | -0.389
UCUGUCG | -0.733
GACCCUG | -0.438
CAGGGCU | 0.699
UGACGUU | -0.552
AUGAUGA | 0.212
GACUAUG | -0.0642
ACUCUGC | -0.86
CACGUGG | 0.566
GAAAAAU | -0.145
GAAGAUA | 0.55
GCAACAU | -0.285
AUAAUCU | -0.649
CGUCGGC | -0.292
UGAUGUU | -0.279
GUUACCU | -0.402
AGUGCAA | 0.176
GCUCUUA | -0.707
UUGAAGA | 0.128
AUCUAAC | -0.681
UCUCGCA | -0.646
GACUCUC | -0.893
UCCGAUG | -0.464

Sequence | RNAcompete 7-mer binding Z-score
GCAAAGA | 0.348
CCACCAG | -0.386
UUGCUUG | -0.746
GUUAGGC | 1.03
GGUCAGC | 0.755
UAAGAGA | 0.391
CCACGAC | -0.532
UAUUAGC | -0.438
GACGGAA | 1.4
UAGUAGU | -0.035
UACAUGG | 0.703
GAUAAAC | -0.301
CACUAGG | 0.235
AGACCAA | -0.623
UUGCCAC | -0.617
UGUGGAU | 2.02
UGAUCAC | -0.0869
GAAUCCU | -0.763
GGCUGUC | -0.207
GCCCCCC | -0.175
UGGUACG | 1.43
CGGCUUU | -0.743
GAUACUU | -0.571

Sequence | RNAcompete 7-mer binding Z-score
UUCUCCC | -0.685
CGUACGC | -0.418
CUACUGC | -0.513
CGGGCCG | 0.228
AUCUCUC | -0.919
GAGCCGU | -0.522
GUUAAUC | -0.217
UCGCCUG | -0.542
UUUACGC | -0.837
ACCAGCC | -0.672
GUCUCUU | -0.558
ACGGGUG | 3.39
CUCCUUG | -0.642
AAACCCA | -0.701
GGGAGUC | 1.77
UUUUGCC | -0.834
GACCCCA | -0.662
UUAUGAU | -0.353
CGAGAAG | 0.495
UCGGGAC | 0.553
UUACUUG | -0.535
AAGUUUC | -0.808
CUCGCAC | -0.587

Sequence | RNAcompete 7-mer binding Z-score
AAAUGCA | -0.184
AGGGAGC | 2.12
CAUCAUA | -0.532
CUUCCGC | -0.743
UAGAGAG | 0.842
GCGGCCU | -0.327
AACGUAU | -0.321
AUUAGAC | -0.464
GGGGCGA | 2.46
UUAGCAG | 0.00729
CAAGAAC | -0.5
GUUAGCC | -0.415
AGUAUUU | -0.545
GGUGAUC | 1.15
CCGGCAC | -0.409
GAUAAAU | -0.0707
GGUCCCA | -0.311
ACCAACC | -0.74
GUGGCGA | 1.42
AAAAAGG | 2
GAAAAUU | -0.0674
CGACCGG | 0.267
UAAAUAC | -0.409

Sequence | RNAcompete 7-mer binding Z-score
AGUGCAG | 0.576
CCCUGCU | -0.74
GGUCAUG | 0.92
GAGAACG | 0.943
UUGUGCG | -0.155
CAGGUUG | 2.04
UAUCAUU | -0.646
AUAGCGU | 0.0268
CACAAAG | -0.34
ACCACCA | -0.503
CAGGCCA | 0.00404
AUAAAGG | 1.64
AAAGCAC | -0.418
UUUGCCU | -0.821
GGGCUAG | 1.74
GGAACCC | -0.0707
AAAGCUA | -0.103
CAAGGUG | 1.76
GCAGCGC | -0.178
CGGAUGC | 0.68
UCUAAAA | -0.591
AAGUUCU | -0.659
ACCAUUG | -0.662

Sequence | RNAcompete 7-mer binding Z-score
UCCGCCU | -0.698
CAAGAUC | -0.6
ACCGUAA | -0.802
ACGCUAG | -0.402
GGAAUUU | 0.407
GCUUCAG | -0.425
AACUCGU | -0.789
UUAUUCC | -0.876
CAUAUGG | 0.296
GAAGUUA | 0.309
UCUCUCU | -0.733
AACCUCA | -0.659
CUCCGAC | -0.649
CUAGUAC | -0.578
UUGUAGA | -0.0447
GCACGUA | -0.0707
CUGCCUG | -0.659
GUUUCUC | -0.483
CUCUGAU | -0.805
UCGUGUG | -0.0577
GUUGGAU | 1.67
GUUACUG | -0.152
GCCCAGC | -0.409

Sequence | RNAcompete 7-mer binding Z-score
CGUAAUU | -0.509
AGACACU | -0.815
GGUAAGA | 2.19
GUGGCAA | 1.03
UCGUUGG | 0.553
GGACCUG | -0.145
GAACCAA | -0.451
UACAUGC | -0.467
CCUCUAG | -0.694
CUAGAUU | -0.678
GCAUGAG | 0.612
CUGUAUG | -0.301
CCCACAG | -0.47
AUUUCCC | -0.925
GUCCCUA | -0.587
CUCCUCG | -0.568
GUCCUUU | -0.759
UAUAAUG | 0.118
UAUAUGG | 1.03
AGGGUUC | 0.985
GCGUCGC | -0.113
AAAAUAA | -0.428
CCCUCAG | -0.568
